# Where “and” joins values, the source holds several entries; their conditions need not be identical. Equal entries are not always repeated. Inconclusive means that the source gave no clear call. Such entries were picked first, then a sample of the others. Where the call is inconclusive, the potency comes from a doubtful curve fit. Calls of active or inactive are those of the source. Calls follow the shape of the dose curve; as a rule, active = well fitted curve in the direction sought with a large enough effect; inconclusive = small, poorly fitted or top-dose-only effect, or another doubt; inactive = no such curve, though single readings can be large; an effect the other way counts as inactive or inconclusive.
# Experiments:
# [1] = qHTS of pediatric cancer cell lines to identify multiple opportunities for drug repurposing: Primary screen for BT-37 cells (AID 1347094)
# Summary of the method: (§1)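 Readout: CellTiter-Glo luminescence, 48 h treatment. Controls DMSO (neutral) and bortezomib 2.3 µM final (positive). Potency and efficacy taken from primary-screen concentration-response curves.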
# [2] = qHTS of pediatric cancer cell lines to identify multiple opportunities for drug repurposing: Primary screen for NB-EBc1 cells (AID 1347095)
# Summary of the method: as §1
# [3] = qHTS of pediatric cancer cell lines to identify multiple opportunities for drug repurposing: Primary screen for U-2 OS cells (AID 1347096); also: nearly all actives have a fitted effect of over 50% in size
# Summary of the method: (§2)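 Cells (500-1,000/well) rested 5 h, then received compounds for 48 h; metabolically active cells were measured by CellTiter-Glo luminescence. Final concentrations spanned up to 46 µM (MIPE, 11-point) or 0.59 nM-46 µM (NPC, 8-point) in primary screens, 11-point in follow-ups.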
# [4] = qHTS of pediatric cancer cell lines to identify multiple opportunities for drug repurposing: Primary screen for NB1643 cells (AID 1347099); also: nearly all actives have a fitted effect of over 50% in size
# Summary of the method: as §1
# [5] = qHTS of pediatric cancer cell lines to identify multiple opportunities for drug repurposing: Primary screen for LAN-5 cells (AID 1347100); conditions: LAN-5 neuroblastoma viability, CellTiter-Glo luminescence, 48 h; activity change, negative = cytotoxic: at 46 µM (top of the series)
# Summary of the method: as §2
# [6] = qHTS of pediatric cancer cell lines to identify multiple opportunities for drug repurposing: Primary screen for BT-12 cells (AID 1347101); also: nearly all actives have a fitted effect of over 25% in size
# Summary of the method: as §2
# [7] = qHTS of pediatric cancer cell lines to identify multiple opportunities for drug repurposing: Primary screen for SK-N-MC cells (AID 1347093); conditions: SK-N-MC viability, CellTiter-Glo luminescence, 48 h; activity change, negative = cytotoxic: at 46 µM (top of the series)
# Summary of the method: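 Metabolically active cells were quantified by ATP-dependent luminescence (CellTiter-Glo, 15 min at room temperature) following 48 h treatment. Cells had been plated at 500-1,000 per well and settled for 5 h beforehand.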
# [8] = qHTS of pediatric cancer cell lines to identify multiple opportunities for drug repurposing: Primary screen for SK-N-SH cells (AID 1347098); also: nearly all actives have a fitted effect of over 65% in size
# Summary of the method: as §2
# [9] = qHTS of pediatric cancer cell lines to identify multiple opportunities for drug repurposing: Primary screen for Saos-2 cells (AID 1347097); conditions: Saos-2 viability, CellTiter-Glo ATP luminescence, 48 h; activity change, negative = cytotoxic: at 46 µM (top of the series); also: nearly all actives have a fitted effect of over 40% in size
# Summary of the method: as §1
# Potency is read from the fitted curve at half-maximal effect; tags tell the direction and shape of the fitted curve.
smiles,measurement,setting,value
O=C(C=Cc1ccc(O)cc1)c1ccc(O)cc1O,Potency,[1],"inconclusive: 27.3 µM [cytotoxic, partial curve]"
same,Potency,[2],"inconclusive: 18.7 µM [cytotoxic, partial curve]"
same,Potency,[3],"inconclusive: 18.7 µM [cytotoxic, partial curve, poor fit]"
same,Potency,[4],active: 13.2 µM
same,Potency,[5],active: 20.9 µM
same,Potency,[6],"inconclusive: 27.3 µM [cytotoxic, partial curve]"
N=c1ccn2c(n1)O[C@H]1[C@@H](O)[C@@H](CO)O[C@H]12,Potency,[7],active: 11.8 µM
same,Potency,[8],"inconclusive: 7.64 µM [cytotoxic, partial curve]"
same,Potency,[4],active: 9.35 µM
same,Potency,[6],"inconclusive: 3.06 µM [cytotoxic, full curve]"
O=C1c2ccccc2C(=O)c2c1ccc(O)c2O,Potency,[1],"inconclusive: 27.6 µM [cytotoxic, partial curve, poor fit]"
COC(=O)c1nc(Cl)c(Cl)nc1N,Potency,[1],active: 13.8 µM
same,Potency,[2],active: 1.33 µM
same,Potency,[3],active: 13.3 µM
same,Potency,[4],"inconclusive: 2.66 µM [cytotoxic, single point]"
same,Potency,[6],active: 2.19 µM
O=C(NOCC1CC1)c1ccc(F)c(F)c1Nc1ccc(I)cc1Cl,Potency,[1],active: 24.6 µM and active: 21.7 µM
same,Potency,[2],active: 15 µM and active: 8.33 µM
same,Potency,[3],"inconclusive: 21.1 µM [cytotoxic, single point] and active: 18.7 µM"
same,Potency,[9],active: 10.6 µM and active: 16.6 µM
same,Potency,[8],"inconclusive: 6.07 µM [cytotoxic, full curve]"
same,Potency,[4],"inconclusive: 33.5 µM [cytotoxic, single point]"
CC1(C)Cc2c(sc(NC(=S)NC(=O)c3ccccc3)c2C(=O)O)CO1,Potency,[7],active: 1.66 µM
same,Potency,[8],"inconclusive: 5.41 µM [cytotoxic, full curve]"
Cc1cccc(C)c1NC(=O)c1ccccc1C(=O)O,Potency,[1],inactive
O=c1cc(CN2CCOCC2)occ1OCCCCCSc1ccnc2cc(C(F)(F)F)ccc12,Potency,[1],"inconclusive: 24.3 µM [cytotoxic, partial curve]"
same,Potency,[2],"inconclusive: 14.8 µM [cytotoxic, partial curve]"
same,Potency,[3],"inconclusive: 23.5 µM [cytotoxic, partial curve, poor fit]"
same,Potency,[8],"inconclusive: 24.1 µM [cytotoxic, partial curve]"
same,Potency,[5],"inconclusive: 33.2 µM [cytotoxic, single point]"
same,Potency,[6],"inconclusive: 4.32 µM [cytotoxic, full curve]"
CCCCCCCC/C=C/C(=O)O,Potency,[7],active: 42.2 µM
same,Potency,[8],"inconclusive: 7.7 µM [cytotoxic, partial curve]"
same,Potency,[4],"inconclusive: 2.11 µM [cytotoxic, full curve]"
CS(=O)(=O)CCNCc1ccc(-c2ccc3ncnc(Nc4ccc(OCc5cccc(F)c5)c(Cl)c4)c3c2)o1,Potency,[1],active: 24.3 µM and active: 27.6 µM
same,Potency,[2],"active: 3.72 µM and inconclusive: 29.9 µM [cytotoxic, single point]"
same,Potency,[3],"inconclusive: 26.6 µM [cytotoxic, single point]"
same,Potency,[9],"inconclusive: 29.9 µM [cytotoxic, single point]"
same,Potency,[8],"inconclusive: 17.1 µM [cytotoxic, partial curve, poor fit]"
same,Potency,[4],"inconclusive: 5.9 µM [cytotoxic, partial curve, poor fit] and inconclusive: 29.9 µM [cytotoxic, single point]"
same,Potency,[5],"inconclusive: 21.1 µM [cytotoxic, single point]"
same,Potency,[6],"inconclusive: 30.6 µM [cytotoxic, single point] and inconclusive: 30.9 µM [cytotoxic, single point]"
Cn1nnc2c(C(N)=O)ncn2c1=O,Potency,[7],inactive
same,Potency,[8],inactive
same,Potency,[6],inactive
O=C(O)CCC(=O)c1ccc(-c2ccccc2)cc1,Potency,[7],inactive
same,Potency,[5],inactive
OC[C@H]1O[C@@H](n2cnc3c2NC=NC[C@@H]3O)C[C@H]1O,Potency,[7],"inconclusive: 26.4 µM [cytotoxic, single point]"
same,Potency,[4],"inconclusive: 23.5 µM [cytotoxic, single point]"
CC1Cc2ccccc2N1NC(=O)c1ccc(Cl)c(S(N)(=O)=O)c1 (configuration not stated),Potency,[7],inactive
same,Potency,[5],inactive
COc1cc(OC)c(C(=O)CCCN2CCCC2)c(OC)c1,Potency,[7],"inconclusive: 13.2 µM [cytotoxic, partial curve]"
same,Potency,[4],inactive
CC(C)OC(=O)c1cc(C(=O)OC(C)C)cc([N+](=O)[O-])c1,Potency,[7],"inconclusive: 70 µM [cytotoxic, single point]"
same,Potency,[6],"inconclusive: 14.5 µM [cytotoxic, single point]"
CCC1(c2ccccc2)C(=O)NCNC1=O,Potency,[1],"inconclusive: 34.3 µM [cytotoxic, partial curve, poor fit]"
Nc1ccccc1NC(=O)c1ccc(CNC(=O)OCc2cccnc2)cc1,Potency,[1],active: 3.85 µM
same,Potency,[2],active: 1.32 µM
same,Potency,[3],active: 1.87 µM
same,Potency,[9],active: 2.35 µM
same,Potency,[8],active: 17.1 µM
same,Potency,[5],active: 0.833 µM
same,Potency,[6],active: 7.69 µM
CC1=NS(=O)(=O)c2cc(Cl)ccc2N1,Potency,[7],inactive
same,Potency,[6],inactive
C=CC(=O)Nc1cccc(Sc2nc(Nc3ccc(N4CCN(C)CC4)cc3)ncc2Cl)c1,Potency,[1],"inconclusive: 43.2 µM [cytotoxic, single point]"
same,Potency,[2],active: 9.35 µM
same,Potency,[3],"inconclusive: 37.2 µM [cytotoxic, single point]"
same,Potency,[9],"inconclusive: 18.7 µM [cytotoxic, partial curve, poor fit]"
same,Potency,[4],"inconclusive: 1.66 µM [cytotoxic, full curve]"
same,Potency,[5],"inconclusive: 37.2 µM [cytotoxic, single point]"
same,Potency,[6],"inconclusive: 43.2 µM [cytotoxic, single point]"
O=C(/C=C/c1ccccc1)NCCO,Potency,[7],inactive
same,Potency,[8],inactive
Cc1cc(O)c2ccccc2c1O,Potency,[1],"inconclusive: 38.9 µM [cytotoxic, single point]"
same,Potency,[2],"inconclusive: 29.9 µM [cytotoxic, single point]"
same,Potency,[3],"inconclusive: 26.6 µM [cytotoxic, single point]"
same,Potency,[9],"inconclusive: 33.5 µM [cytotoxic, single point]"
same,Potency,[5],"inconclusive: 29.9 µM [cytotoxic, single point]"
same,Potency,[6],"inconclusive: 21.9 µM [cytotoxic, single point]"
N=C1N=C(N)c2cc3ccccc3cc21,Potency,[1],active: 15.9 µM
same,Potency,[2],"inconclusive: 43.3 µM [cytotoxic, single point]"
same,Potency,[3],"inconclusive: 38.6 µM [cytotoxic, single point]"
same,Potency,[8],active: 25 µM
CCN(CC)CCNC(=O)COc1ccc(OC)cc1,Potency,[7],inactive
same,Potency,[4],inactive
same,Potency,[5],inactive
same,Potency,[6],inactive
CCc1ccc(OCc2ccccc2C(=O)Nc2ccc3nc(C)cc(N)c3c2)cc1,Potency,[1],active: 8.63 µM
same,Potency,[3],active: 7.43 µM
Nc1nccc(Oc2ccc(NC(=O)c3c[nH]cc(-c4ccc(F)cc4)c3=O)cc2F)c1Cl,Potency,[1],active: 2.17 µM
same,Potency,[2],active: 1.05 µM
same,Potency,[9],active: 18.7 µM
N#CC(=C(N)Sc1ccccc1N)C(C#N)=C(N)Sc1ccccc1N,Potency,[1],"inconclusive: 21.7 µM [cytotoxic, partial curve]"
same,Potency,[2],inactive
same,Potency,[8],"inconclusive: 27.1 µM [cytotoxic, single point]"
same,Potency,[5],"inconclusive: 18.7 µM [cytotoxic, partial curve]"
COC(=O)C1=CO[C@@H](O)[C@@H]2C(CO)=CC[C@@H]12,Potency,[1],inactive
same,Potency,[2],"inconclusive: 23.5 µM [cytotoxic, single point]"
same,Potency,[8],"inconclusive: 42.9 µM [cytotoxic, single point]"
same,Potency,[4],"inconclusive: 23.5 µM [cytotoxic, single point]"
same,Potency,[6],"inconclusive: 43.2 µM [cytotoxic, partial curve, poor fit]"
CCCCc1oc2ccccc2c1C(=O)c1cc(I)c(OCCN(CC)CC)c(I)c1,Potency,[1],"inconclusive: 24.3 µM [cytotoxic, partial curve] and active: 30.9 µM"
same,Potency,[3],"active: 7.43 µM and inconclusive: 16.8 µM [cytotoxic, partial curve]"
same,Potency,[5],"inconclusive: 33.5 µM [cytotoxic, single point]"
same,Potency,[6],active: 4.32 µM and active: 21.9 µM
CC(C)(C)c1ccc(O)c(O)c1,Potency,[1],"inconclusive: 35.5 µM [cytotoxic, single point]"
same,Potency,[3],"inconclusive: 30.6 µM [cytotoxic, single point]"
same,Potency,[8],active: 25 µM
CN(C)c1ccc2cc(C(=O)N[C@@H](CCCN=C(N)CCl)C(=O)NCc3ccccc3)ccc2c1,Potency,[1],"inconclusive: 24.3 µM [cytotoxic, partial curve]"
same,Potency,[3],"inconclusive: 23.5 µM [cytotoxic, single point]"
same,Potency,[4],active: 14.8 µM
same,Potency,[6],active: 24.3 µM
OC(CN1CCC(Cc2ccc(F)cc2)CC1)c1ccc(Cl)cc1 (configuration not stated),Potency,[1],inactive
same,Potency,[9],"inconclusive: 16.8 µM [cytotoxic, partial curve, poor fit]"
same,Potency,[8],"inconclusive: 1.7 nM [cytotoxic, full curve, poor fit] and inconclusive: 42.9 µM [cytotoxic, single point]"
same,Potency,[4],"inconclusive: 21.1 µM [cytotoxic, single point] and inconclusive: 18.7 µM [cytotoxic, partial curve]"
